The other results are listed elsewhere or left out. At the low end of the ranking the order means little. The protein was read in a cell extract, so binding may be indirect.
These sequences were tested against T1, HNF4alpha8 (COS-7 nuclear extract) (UniProt P41235-5) (assay: protein-binding microarray). Settings: COS-7 nuclear extract on double-stranded Agilent 4x180k PBM; binding buffer, salt, pH and temperature not given; high values mean tight binding; double strand, one strand shown; sequences stand for … in …GCCTAGGGAGATTAGAGTATCGGTCGA.
T1 sequence: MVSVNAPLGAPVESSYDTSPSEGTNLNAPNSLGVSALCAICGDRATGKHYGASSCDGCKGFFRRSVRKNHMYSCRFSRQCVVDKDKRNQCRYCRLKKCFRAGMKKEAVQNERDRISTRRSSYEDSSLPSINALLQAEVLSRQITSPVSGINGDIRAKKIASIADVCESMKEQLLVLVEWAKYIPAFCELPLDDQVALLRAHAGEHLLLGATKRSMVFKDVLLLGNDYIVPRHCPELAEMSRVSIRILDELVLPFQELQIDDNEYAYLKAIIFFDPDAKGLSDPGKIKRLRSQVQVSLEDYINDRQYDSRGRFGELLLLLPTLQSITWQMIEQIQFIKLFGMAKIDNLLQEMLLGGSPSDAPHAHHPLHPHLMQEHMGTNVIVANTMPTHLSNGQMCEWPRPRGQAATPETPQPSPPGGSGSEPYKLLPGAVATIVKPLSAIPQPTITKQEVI
For TAGTTACCCAAGGGATGGCATCACCTTTGG, the binding signal (log2 normalized intensity) was 1.61. CCCTAATCTCACTCTTTGTTATTTATTGGC was tested, and the binding signal (log2 normalized intensity) was 1.83. In the case of AGTCTGTGACTTGATCTTTGACTGGATTCT, the binding signal (log2 normalized intensity) is reported as 2.67. For CCCTGAGGCCAATGAGGGAAGTTATTAACA, the binding signal (log2 normalized intensity) was -1.16. AGTATTGAGGCCGGAGGGCAGGCGGGCCGC gave a binding signal (log2 normalized intensity) of -1.31. GCCTCACTAAGTCCTGCTTAGAGCATCCAA gave a binding signal (log2 normalized intensity) of -1.44. ACCTTTGCTCATGTCCTCTTGCTTCCTGGG was tested, and the binding signal (log2 normalized intensity) was 1.45. Work on CAGGGAGAAGGCAAAAATGCAGGCAATGAA yielded a binding signal (log2 normalized intensity) of -1.39. For AGTATGCAGCGGGCAGCCCGTGTGGGCGGG, the binding signal (log2 normalized intensity) was -1.23. In the case of CTGTCACACTTGCCCTTTGCCCTCACTGGT, the binding signal (log2 normalized intensity) is reported as 7.78. With CAACAAGGTGGAGACCTCTGCAGGAGGACT the binding signal (log2 normalized intensity) was -1.33. Work on AAAGGGACAGGGGTCATCAGGGGTCCTGGC yielded a binding signal (log2 normalized intensity) of 1.97. CACTTGGATAGCGCGTGGCCCAAGGCCTCT gave a binding signal (log2 normalized intensity) of -1.21. CAGGGTTGTGCAGGACTGCGTAACTTACAG showed a binding signal (log2 normalized intensity) of -1.39. In the case of ATCAGAGCAAAGTTCAATTTCCAACAAATG, the binding signal (log2 normalized intensity) is reported as 3.74. Sequence GCCACCTGAAGGCAGGTGTGGGTTGGGGGT has a binding signal (log2 normalized intensity) of -1.05. In the case of ACTTCAAGGTCCATTTGAGGCTAAGTGTAG, the binding signal (log2 normalized intensity) is reported as 1.07. TTCCAATCTGGTGAAAGATGATGAGGCGGT was tested, and the binding signal (log2 normalized intensity) was -1.24. In the case of ACATTGTTAGCATAGCCTATCTGGTGCAGT, the binding signal (log2 normalized intensity) is reported as 0.746. GTGAATCCTTAAGATTCCTGCTCTAATGTT was tested, and the binding signal (log2 normalized intensity) was -0.915. With TCTCTAGATCTCAGTTGGTCCAAGGTACAT the binding signal (log2 normalized intensity) was 3.61. In the case of CAGTAACTCACTATCAGGAAACTCTTTCCT, the binding signal (log2 normalized intensity) is reported as -1.1. AGTAGAAGAGCCAAAATGTGTTAGGCAAGC was tested, and the binding signal (log2 normalized intensity) was -1.38. Work on TTCTCCTCCAGGACCTTGCCCTTTAGTTAT yielded a binding signal (log2 normalized intensity) of 4.72. For CTCAAGGAGGCCCAAAGGAAGGACTTCAGG, the binding signal (log2 normalized intensity) was -1.35. GTATTTTTTCAACATATACTTTGAACTTGT gave a binding signal (log2 normalized intensity) of 4.04. In the case of ATGGAGCTAAACAATTAAAGAACTCTTCAT, the binding signal (log2 normalized intensity) is reported as -1.16. Work on GTTATCTTGGGGCTGATATCTCTCTGGCTG yielded a binding signal (log2 normalized intensity) of -1.33. GGTAAATATTATCATTGCCTCTGGTATGCA was tested, and the binding signal (log2 normalized intensity) was 1.23. Work on GGGTTTGGCTCCAAGGCTGAAGGTCTCGAG yielded a binding signal (log2 normalized intensity) of 0.377. Work on GACCTTTGAACACCACAAGTTTGAACTGCA yielded a binding signal (log2 normalized intensity) of 5.65. Work on GTGTGCCCCACTTATCTGCTATTCTGGCAA yielded a binding signal (log2 normalized intensity) of -1.34. In the case of ATAATTCAGTTTCATTGCACTTTGCCCTCT, the binding signal (log2 normalized intensity) is reported as 9.39. ATGAGTTCCCGGCAAGCCGACTTACAGGAC gave a binding signal (log2 normalized intensity) of -1.31. TGGACTTTGGTCCTGGTCAGACTTGCCACG gave a binding signal (log2 normalized intensity) of 5.42. In the case of TCTCCTCCTCCCATTCCAGCTCTTTACTCA, the binding signal (log2 normalized intensity) is reported as 0.177. TTAGCCCAGTGAGACCCATTTTGGACTTTG gave a binding signal (log2 normalized intensity) of 7.42. AAGACATTGCCTGGCATTATCAGTGCTGCC was tested, and the binding signal (log2 normalized intensity) was -0.907. TTACAAAAGAAGAAGATGATATGGTCAGTG gave a binding signal (log2 normalized intensity) of 0.815. ACAATTTTCAAGAACAAACAAATTTAGCAA was tested, and the binding signal (log2 normalized intensity) was -1.29. Sequence TTAATATATGAAGATGGGCATTAGGTGGAC has a binding signal (log2 normalized intensity) of 1.72. With CACAGTGGGGCAGATCACAAGCACCCCCCA the binding signal (log2 normalized intensity) was 4.06. GCTTCCAGTTAAGCAGGTTCACATTTTTGT showed a binding signal (log2 normalized intensity) of 1.28. In the case of AACTTTGGACCACATATAGAGAAGCCAGGG, the binding signal (log2 normalized intensity) is reported as -1.33. In the case of AACAGGAATTCAAAGGTGCAAAGGTTAAAA, the binding signal (log2 normalized intensity) is reported as 6.07. For CGGGAATCTGACCTTTGGGACATTCCCCAG, the binding signal (log2 normalized intensity) was 5.52. Work on ACCAGGGGGCAGAGTGAGCAGCACTTTTGG yielded a binding signal (log2 normalized intensity) of -1.04. TGGATTACATACCCAAGTTCCCTCTCAGGA gave a binding signal (log2 normalized intensity) of -0.0575. Work on GGGGTCTGGTTTCTAGGTAGATAAGGGAGT yielded a binding signal (log2 normalized intensity) of 0.189. ACTCTCTCTCTGTGTCACATACACCTGCGT showed a binding signal (log2 normalized intensity) of 1.31. Sequence CTTACGGCCCTGTGGTGTTCGCTAAGATGT has a binding signal (log2 normalized intensity) of 0.705. AGCTGCCCTTTGCACATGCCCCTCCCAGGG was tested, and the binding signal (log2 normalized intensity) was 2.81. TCCTGTCCACCCTGAAAGAGAGGAGGCTGA was tested, and the binding signal (log2 normalized intensity) was -1.3. CCAAATTCTTTTTTTTTTTTTTTTTTTTTT gave a binding signal (log2 normalized intensity) of 3.27. For AAAAATCTCACTCACCCTAAGCCCTGCTCA, the binding signal (log2 normalized intensity) was -1.24. Work on CAGACGGATTCCACGGGGGTGCAGCCAAGT yielded a binding signal (log2 normalized intensity) of -1.34. CAAGGTAAACATGATGAAAGCAATGTTTGA showed a binding signal (log2 normalized intensity) of 0.597. With TGAAGTGAGTTGTTTGTTTTGAGATAGGGT the binding signal (log2 normalized intensity) was 1.76. With CCCAGCCAGAATTCTCCCTGCAGTCCTCTG the binding signal (log2 normalized intensity) was -1.3. TGTACCCGTCCACCTTTGGATCCAGCTCCT was tested, and the binding signal (log2 normalized intensity) was 2.67. With ACCCTGACTCTGCAGCCGAACCGGCACGGT the binding signal (log2 normalized intensity) was -1.4. With GGAAATCCCGAAATAGAGCCAAACATGATA the binding signal (log2 normalized intensity) was -1.36. Sequence ATGCTGATGGGGACCACAGAGAACTAATCT has a binding signal (log2 normalized intensity) of -1.31. Work on GATGCTGGACTTCAGCCTCCAGAACTATGA yielded a binding signal (log2 normalized intensity) of 3.39. With GAGAGGCTGCCATCCCACATTCCACAGACT the binding signal (log2 normalized intensity) was -1.16. GACGGCTAAGAGAAATCCACACAGCACTGA gave a binding signal (log2 normalized intensity) of -1.39. In the case of GCAAACACCTGGCCAGCGACTTTAGGGGCC, the binding signal (log2 normalized intensity) is reported as -1.32. With AAGGTCAGTTTCTTTAAGACAAGTGTCCCT the binding signal (log2 normalized intensity) was 1.67. In the case of GATCCAACTCTGAAGATTCACAGGTGGGAT, the binding signal (log2 normalized intensity) is reported as -1.41. In the case of ATATTATGTTTTGTTATCTGTGCCACAGGT, the binding signal (log2 normalized intensity) is reported as 1.69. In the case of GTCCTGGTCACAGTAACAGGGAGTCTGTTG, the binding signal (log2 normalized intensity) is reported as 0.503. CAAACACAGATAGCATAATCAAAGAGAAAA gave a binding signal (log2 normalized intensity) of -1.29. With CCTCATCTGTGTAGAAATTGTGGCTTGTGT the binding signal (log2 normalized intensity) was 1.82. In the case of CTGTGGTCTAGCTTGTTCTCTCCCCCAACC, the binding signal (log2 normalized intensity) is reported as 4.34. Sequence GGACAGAGATAACTGGGGGCATAGCCCATG has a binding signal (log2 normalized intensity) of -1.3. Sequence GAGGAGAATTGGCATTAATTCTTCTTTGAA has a binding signal (log2 normalized intensity) of -1.14. GGTATCCACAGGAGGCCCCATCGCACGGCA showed a binding signal (log2 normalized intensity) of -1.39. Work on GCGATCCGGGCTCCGGGCGCCGCGCGCGCC yielded a binding signal (log2 normalized intensity) of -1.27. GAGGTGACTTGTCCTGAGATAAGTCACCTT was tested, and the binding signal (log2 normalized intensity) was 0.779. With TAATCTGCTTCCAGTTCCATAATCCCCGAA the binding signal (log2 normalized intensity) was 2.5. Sequence GACCTTGGCACTGAAGAATGTCTAAATCTG has a binding signal (log2 normalized intensity) of 0.616. With TCTGAAGATAAATGCCTTAGCTGTGACCAT the binding signal (log2 normalized intensity) was 0.412. For GCAGGGGATGCCCTTTGACCTCTGCTTCCT, the binding signal (log2 normalized intensity) was 8.67. With AGGAAGTGTGCACAAGTCCTCACAATAATG the binding signal (log2 normalized intensity) was -1.2. For GGCCCTCTAGTCTAGTCCAAACTGCAACCT, the binding signal (log2 normalized intensity) was 1. In the case of ATGGGGACTTTGGACTCCTGTTTGAACAAA, the binding signal (log2 normalized intensity) is reported as 5.69. Work on GCAGACTTGGATTTTCTCATCCCAGGGATA yielded a binding signal (log2 normalized intensity) of -1.02. Work on AAACCAAAGCTGGAGTGCAGTCCCCGGCTG yielded a binding signal (log2 normalized intensity) of -0.88. Sequence ACAATGGCATTTCACAGAGCAAGGGTCCAG has a binding signal (log2 normalized intensity) of 2.5. Work on TGAGAGGAATGAGCAGGAACCTTGTGGTGG yielded a binding signal (log2 normalized intensity) of -0.219. Sequence CCTGTTTGCTTCTGCCCCCTGGAGGAGCAA has a binding signal (log2 normalized intensity) of 3.1. For GGGCCATTCCTCTATCTCCCTGTGACCTCC, the binding signal (log2 normalized intensity) was 4.2. CGGCATTCTCTGGTCTGCGGTTGTGTAGAC gave a binding signal (log2 normalized intensity) of 0.867.
